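Each compound was tested at five concentrations against cells in 96-well plates for 48 hours. At the GI50, growth is halved.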 Not every entry of the source has a single result; some have several. Only these are listed. There may be further records. For some assays here: Values that stand side by side are repeats (runs, samples, wells, individuals or studies). What stands in brackets tells the records apart. The letters are not those of the source and start again with each entry.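 TGI is the concentration that stops growth completely.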 For some assays here: A record mostly stands for its own series of concentrations, which the source does not state; some values may only mark the edge of a range.
Tests used:
Assay in all cases: NCI anticancer screen, dose series, 48 h
A549 NSCLC = system: A549 NSCLC
ACHN renal = system: ACHN renal
BT-549 breast = system: BT-549 breast
CCRF-CEM leukemia = system: CCRF-CEM leukemia
HCT-116 colon = system: HCT-116 colon
HCT-15 colon = system: HCT-15 colon
HL-60(TB) leukemia = system: HL-60(TB) leukemia
HOP-62 NSCLC = system: HOP-62 NSCLC
HS 578T breast = system: HS 578T breast
HT29 colon = system: HT29 colon
IGROV1 ovarian = system: IGROV1 ovarian
MALME-3M melanoma = system: MALME-3M melanoma
MCF7 breast = system: MCF7 breast
MDA-N = system: MDA-N
MOLT-4 leukemia = system: MOLT-4 leukemia
NCI-H226 lung = system: NCI-H226 lung
NCI-H23 lung = system: NCI-H23 lung
NCI-H460 lung = system: NCI-H460 lung
NCI-H522 lung = system: NCI-H522 lung
OVCAR-3 ovarian = system: OVCAR-3 ovarian
OVCAR-4 ovarian = system: OVCAR-4 ovarian
PC-3 prostate = system: PC-3 prostate
RPMI-8226 leukemia = system: RPMI-8226 leukemia
SF-268 CNS = system: SF-268 CNS
SK-OV-3 ovarian = system: SK-OV-3 ovarian
SNB-75 CNS = system: SNB-75 CNS
SR leukemia = system: SR leukemia
U251 CNS = system: U251 CNS
UACC-257 melanoma = system: UACC-257 melanoma
UACC-62 melanoma = system: UACC-62 melanoma
UO-31 renal = system: UO-31 renal
COLO 205 colon = system: COLO 205 colon
RXF 393 renal = system: RXF 393 renal
XF 498 CNS = system: XF 498 CNS
SF-539 CNS = system: SF-539 CNS
DU-145 prostate = system: DU-145 prostate
EKVX NSCLC = system: EKVX NSCLC
HOP-92 NSCLC = system: HOP-92 NSCLC
LOX IMVI melanoma = system: LOX IMVI melanoma
NCI/ADR-RES ovarian = system: NCI/ADR-RES ovarian
SF-295 CNS = system: SF-295 CNS
SK-MEL-5 melanoma = system: SK-MEL-5 melanoma

## COc1ccc([C@@]23Oc4cc(OC)cc(OC)c4[C@]2(O)[C@H](O)[C@H](C(=O)N(C)C)[C@H]3c2ccccc2)cc1
A549 NSCLC
  TGI: 114 nM, 25 µM, 229 nM
ACHN renal
  TGI: 32.6 nM, 3.24 nM, 36.3 nM
BT-549 breast
  TGI: 522 nM and 20.4 nM
CCRF-CEM leukemia
  TGI: 143 nM, 25 µM, > 100 µM
HCT-116 colon
  TGI: 33.7 nM, 4.67 nM, 122 nM
HCT-15 colon
  TGI: 1.27 µM, 79.7 nM, 330 nM
HL-60(TB) leukemia
  TGI: 51.3 nM and 3.6 µM
HOP-62 NSCLC
  TGI: 69.1 nM, 11.6 nM, 160 nM
HS 578T breast
  TGI: 926 nM, 26.5 nM, 168 nM
HT29 colon
  TGI: 59.5 nM, 7.47 nM, 117 nM
IGROV1 ovarian
  TGI: 105 nM, 3.26 µM, 2.44 µM
MALME-3M melanoma
  TGI: 57.3 nM, 15.7 nM, 321 nM
MCF7 breast
  TGI: 259 nM, 2.96 µM, 1.45 µM
MDA-N
  TGI: 45.2 nM and 2.5 µM
MOLT-4 leukemia
  TGI: 124 nM, 2.05 µM, > 100 µM
NCI-H226 lung
  TGI: 69.7 nM and 835 nM
NCI-H23 lung
  TGI: 71.1 nM, 8.54 nM, 274 nM
NCI-H460 lung
  TGI: 141 nM and 11.7 µM
NCI-H522 lung
  TGI: 57.6 nM and 4.71 nM
OVCAR-3 ovarian
  TGI: 419 nM, 11.4 nM, 120 nM
OVCAR-4 ovarian
  TGI: 849 nM, 6.75 nM, 297 nM
PC-3 prostate
  TGI: 228 nM and 10.1 µM
RPMI-8226 leukemia
  TGI: 112 nM, 3.67 nM, 192 nM
SF-268 CNS
  TGI: 426 nM, 18.5 nM, 256 nM
SK-OV-3 ovarian
  TGI: 180 nM, 4.18 nM, 18.8 µM
SNB-75 CNS
  TGI: 105 nM, 10.7 nM, 320 nM
SR leukemia
  TGI: 24.5 nM, 25 µM, 54.2 µM
U251 CNS
  TGI: 2.99 µM, 311 nM, 113 nM
UACC-257 melanoma
  TGI: 913 nM, 22.3 nM, 119 nM
UACC-62 melanoma
  TGI: 41.2 nM, 7.5 nM, 117 nM
UO-31 renal
  TGI: 84 nM, 4.32 nM, 96.5 nM

## C/C(=N\NC(=S)N1CCC1)c1ccccn1
OVCAR-3 ovarian
  TGI: 5.62 nM and > 65.3 µM

## CCCCCCCCCCCCCC(=O)O[C@H]1CC[C@H](NC(=O)[C@H](OC)[C@H](O)[C@@H](O)[C@H](O)/C=C/C(C)C)C(=O)N(C)C1
COLO 205 colon
  TGI: 102 nM and 3.64 nM
NCI-H226 lung
  TGI: 345 nM and > 23.8 µM
RXF 393 renal
  TGI: 15 µM and 16.2 nM
XF 498 CNS
  TGI: 15 µM and 356 nM

## CN(Cc1cnc2nc(N)nc(N)c2n1)c1ccc(C(=O)NC(CCC(=O)O)C(=O)O)c2ccccc12 (stereo not given)
HOP-62 NSCLC
  TGI: 93.3 nM and > 1 mM
SF-539 CNS
  TGI: 65.3 nM and > 1 mM

## COc1ccccc1N=Nc1c(O)ccc2ccccc12
CCRF-CEM leukemia
  GI50: 7.61 µM [sample A, mean of 2 tests] and > 100 µM [sample B, 1 test]

## COc1cccc(-c2cc(=O)c3cc(N4CCN(C)CC4)ccc3[nH]2)c1
DU-145 prostate
  TGI: 9.14 µM and > 100 µM
EKVX NSCLC
  TGI: 9.01 µM and > 100 µM
HCT-15 colon
  TGI: 5.31 µM and > 100 µM
HOP-92 NSCLC
  TGI: 8.56 µM and > 100 µM
LOX IMVI melanoma
  TGI: 7.93 µM and > 100 µM
NCI-H226 lung
  TGI: 5.32 µM and 66 µM
NCI-H23 lung
  TGI: 7.19 µM and > 100 µM
NCI/ADR-RES ovarian
  TGI: 3.23 µM and > 100 µM
SF-295 CNS
  TGI: 4.6 µM and > 100 µM
SK-MEL-5 melanoma
  TGI: 3.26 µM and > 100 µM
U251 CNS
  TGI: 4.93 µM and > 100 µM

From PubChem BioAssay (NCI)
